Measurements: PubChem BioAssay (NCATS)
Inconclusive results, whose numbers are uncertain, are shown with a selection of clear calls. Potencies of inconclusive entries are left out as doubtful fits. Active and inactive are the calls of the source. The call rests on the fitted dose curve; in most records, active means well fitted activation curve with a large enough effect; inconclusive means small, poorly fitted or top-dose-only effect; inactive means no such curve, though single readings can be large or run the other way.

Target: Rap guanine nucleotide exchange factor 3 (Homo sapiens) (UniProt O95398)
Chain of UniProt O95398 (O95398 whole entry, looked up): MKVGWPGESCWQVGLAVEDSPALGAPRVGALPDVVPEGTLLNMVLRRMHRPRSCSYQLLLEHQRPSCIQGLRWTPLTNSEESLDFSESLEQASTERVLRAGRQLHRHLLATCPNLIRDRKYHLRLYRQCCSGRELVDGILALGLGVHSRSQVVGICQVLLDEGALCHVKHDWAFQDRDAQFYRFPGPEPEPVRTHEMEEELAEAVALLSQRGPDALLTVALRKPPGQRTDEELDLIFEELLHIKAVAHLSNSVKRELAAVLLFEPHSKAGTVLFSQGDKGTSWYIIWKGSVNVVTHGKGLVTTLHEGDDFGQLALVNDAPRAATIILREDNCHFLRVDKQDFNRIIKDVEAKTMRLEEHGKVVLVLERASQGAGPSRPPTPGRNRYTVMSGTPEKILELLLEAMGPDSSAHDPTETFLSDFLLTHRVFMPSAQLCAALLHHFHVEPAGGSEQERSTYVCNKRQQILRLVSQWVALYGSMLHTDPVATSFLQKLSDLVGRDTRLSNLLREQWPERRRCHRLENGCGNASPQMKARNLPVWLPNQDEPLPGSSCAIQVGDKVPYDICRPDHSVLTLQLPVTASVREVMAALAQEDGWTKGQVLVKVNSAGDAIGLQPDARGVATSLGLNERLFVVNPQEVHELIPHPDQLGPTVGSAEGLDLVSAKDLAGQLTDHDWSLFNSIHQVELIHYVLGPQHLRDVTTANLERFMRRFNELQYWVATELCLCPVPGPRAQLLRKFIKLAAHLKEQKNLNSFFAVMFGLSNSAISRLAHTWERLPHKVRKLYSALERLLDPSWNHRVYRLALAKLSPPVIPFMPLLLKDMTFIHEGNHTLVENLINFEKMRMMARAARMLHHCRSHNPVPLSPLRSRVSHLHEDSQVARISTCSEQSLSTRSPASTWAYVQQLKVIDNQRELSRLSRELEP
Experiment: Confirmatory qHTS for agonist of cAMP-regulated guanine nucleotide exchange factor 3 (EPAC1) (AID 1645881); further: nearly all actives have a fitted effect of over 75% in size;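 on activation: EPAC1 catalysed release of BODIPY-GDP from Rap1B seen as fluorescence loss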
Details: EPAC1 Rap1B BODIPY-GDP exchange fluorescence; series mostly up to 154 µM
Potency means the concentration at half of the fitted maximal effect; tags describe the fitted curve by direction and shape.

SMILES | Potency
CN1c2ccccc2C(C)(C)C12C=Nc1c(cc(N3CCOCC3)c3ccccc13)O2 (stereo unspecified) | inconclusive [activator, partial curve, poor fit]
CCN1CCN(C2=CC3=CC(=C(C#N)C#N)CCC3CC2)CC1 (stereo unspecified) | active: 79.4 µM
Cc1ccc2nc(-c3ccccc3)c(Cc3cccc(Cl)c3)n2c1 | inactive
COc1ccc(OC)c(/C=C/c2nc3ccccc3nc2C)c1 | inconclusive [activator, single point]
Cc1ccc(S(=O)(=O)/N=C2\C=C(NS(=O)(=O)c3ccccc3)C(=O)c3ccccc32)cc1 | inconclusive [activator, partial curve]
O=[N+]([O-])c1ccc(NS(=O)(=O)c2ccccc2)c(Cl)c1 | inconclusive [activator, full curve, poor fit]
CC(=O)c1sc2nc(-c3ccco3)ccc2c1N | inactive
CN1c2ccsc2/C(=N/Nc2ccccc2)CS1(=O)=O | inconclusive [activator, partial curve, poor fit]
Cc1cc(N(C)C)c(C)cc1/C=C/c1ccnc2ccccc12 | inconclusive [activator, single point]
CC(C)CC(=NNC(=O)c1ccncc1)c1cc(Cl)ccc1O | inconclusive [activator, partial curve]
O=C1c2ccccc2S(=O)(=O)c2cc(N3CCC(C(=O)N4CCCCC4)CC3)ccc21 | active: 89.1 µM
CN(C)c1ccc(/C=C/c2ccnc3c(Cl)cccc23)cc1 | inconclusive [activator, partial curve]
Cc1nc2c(C(=O)NCCc3ccc(Cl)cc3)c[nH]n2c(=O)c1Cc1ccccc1F | inactive
CCCN(CCC)c1ccc(/C=C/c2ccnc3ccccc23)cc1 | inconclusive [activator, single point]
COC(=O)C1=NN(c2ccc(C)cc2)C2(S1)SC(C(C)=O)=C(C)N2c1ccccc1 (stereo unspecified) | inconclusive [activator, partial curve, poor fit]
CCCC1C2CN(C(C)C)CC=C2C(C#N)=C(N)C1(C#N)C#N (stereo unspecified) | active: 35.5 µM

SMILES | Potency
O=C(Cc1ccccc1)Nn1c(O)c(/C=C2\C=Nc3ccccc32)sc1=S | active: 112 µM
CC(C)(C)C1COc2ccccc2N1C(=O)c1ccccc1Cl (stereo unspecified) | inconclusive [activator, partial curve, poor fit]
CCOc1cc(/C=C2\CCCc3c2nc2ccccc2c3C(=O)O)ccc1OC | inconclusive [activator, single point]
O=c1oc2cc(O)ccc2cc1-c1nc2ccccc2o1 | active: 100 µM
COC(=O)c1sc(S(=O)(=O)N2CCCCC2C)c(C(=O)OC)c1C (stereo unspecified) | inconclusive [activator, partial curve]
O=[N+]([O-])c1cc([N+](=O)[O-])c2nonc2c1Nc1ccc(O)cc1 | inactive
COc1cccc(C2=NN(C(=O)c3ccco3)C(c3ccco3)C2)c1 (stereo unspecified) | inconclusive [activator, partial curve]
COc1ccc(C(=O)N(CCc2ccccc2)Cc2cccs2)c(OC)c1 | inconclusive [activator, partial curve]
Nc1ncnc2c1nc(Br)n2[C@@H]1O[C@@H]2COP(=O)(O)O[C@H]2[C@H]1O | active: 7.08 µM
O=C(NCc1ccc(OC(F)(F)F)cc1)c1cccc2c1C(=O)c1ccc(N3CCCC3)cc1S2(=O)=O | inconclusive [activator, partial curve, poor fit]
CCOC(=O)/C(C#N)=C\c1ccc(N2CCN(C/C=C/c3ccccc3)CC2)cc1 | active: 79.4 µM
COc1ccc(CN2C(=O)c3cccnc3C2O)cc1 (stereo unspecified) | inactive
COc1ccc(NC(=O)c2csc3c2CCCCC3)c(OC)c1 | inconclusive [activator, partial curve, poor fit]
CN(C)/C=C/c1onc(-c2c(Cl)cccc2Cl)c1C#N | inconclusive [activator, partial curve, poor fit]
CCOC(=O)c1c(CSc2ccccc2)n(C)c2cc(Br)c(OCC(O)CNC(CO)(CO)CO)cc12 (stereo unspecified) | inconclusive [activator, partial curve, poor fit]
